Measurements as given in PubChem BioAssay AID1478 (National Center for Advancing Translational Sciences (NCATS), 2009).
Where “and” joins values, the source holds several entries; their conditions need not be identical. Identical values can stand only once. The campaign covered roughly 200,000 compounds. About 860 (0.43%) were called active. Calls follow the shape of the dose curve; as a rule, active = well fitted inhibition curve with a large enough effect; inconclusive = small, poorly fitted or top-dose-only effect; inactive = flat fitted curve, though single readings scatter. This is a selection; strong and weak results do not stand in their true shares.

What follows are compounds tested against Cruzipain (Trypanosoma cruzi) (UniProt P25779) (assay: qHTS Assay for Promiscuous and Specific Inhibitors of Cruzain (with detergent)). Conditions: purified cruzain, Z-FR-AMC fluorescence, 0.01% Triton.
Chain of UniProt P25779 (P25779 whole entry, looked up): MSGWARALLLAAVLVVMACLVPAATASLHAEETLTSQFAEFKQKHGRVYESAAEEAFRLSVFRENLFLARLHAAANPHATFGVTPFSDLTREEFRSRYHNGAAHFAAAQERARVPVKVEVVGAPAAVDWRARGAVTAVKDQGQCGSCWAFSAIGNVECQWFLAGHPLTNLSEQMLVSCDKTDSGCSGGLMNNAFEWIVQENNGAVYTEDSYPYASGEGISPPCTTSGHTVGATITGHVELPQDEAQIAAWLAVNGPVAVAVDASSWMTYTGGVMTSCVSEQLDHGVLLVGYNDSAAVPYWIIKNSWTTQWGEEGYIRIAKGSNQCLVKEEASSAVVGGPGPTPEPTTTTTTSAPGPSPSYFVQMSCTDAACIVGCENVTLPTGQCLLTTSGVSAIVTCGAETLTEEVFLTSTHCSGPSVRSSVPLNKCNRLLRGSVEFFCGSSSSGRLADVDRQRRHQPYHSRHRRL
Method: Cruzain (3.4.22.51) is a cysteine protease from the tropical parasite Trypanosoma cruzi. Dual qHTS experiment was performed against the NCGC compound collection in order to 1) identify novel inhibitors of the enzyme and 2) profile the compound collection for promiscuous inhibitors operating via colloidal aggregation (by performing detergent-free and detergent-containing comparison screens). Cruzain was assayed by the use of fluorogenic coumarin-based substrate Z-FR-AMC: proteolytic cleavage releases AMC, whose fluorescence is measured at 360 nm excitation and 450 nm emission. Purified cruzain was supplied by the labs of Prof. James McKerrow and Brian Shoichet, UC San Francisco.
This assay had 0.01% Triton X-100 concentration. See also releated assay "qHTS Assay for Promiscuous and Specific Inhibitors of Cruzain (without detergent)" with 0.00005% Triton X-100.
See following references for additional details:
Assay Provider: Shoichet, Brian; University of California, San Fancisco
Screening Center PI: Austin, C.P.
Screening Center: NIH Chemical Genomics Center [NCGC]
Buffer: 100 mM Sodium Acetate, pH 5.5, 5 mM DTT, Triton X-100 concentration: 0.01%.
Buffer in columns 3 and 4 as negative control (no enzyme).
Substrate solution: 2 uM final concentration of Z-FR-AMC (catalog number I-1160, Bachem) dispensed throughout the plate.
Enzyme: 1.5 nM Cruzain final concentration in columns 1, 2, 5-48. Column 1 is neutral (100% activity). Column 2 contained titration of covalent inhibitor K11777, starting concentration 1 mM, then 1:2 dilution in duplicate).
Three uL of enzyme or buffer were dispensed to 1536-well Greiner black solid bottom plates. Compounds and controls (23 nL) were transferred via Kalypsys PinTool. The plates were incubated for 15 min at room temperature, and then 1 uL of substrate solution was added to start the reaction. The plates were immediately transferred to and read 4 times every 30 seconds for 2 min on ViewLux High-throughput CCD imager (Perkin-Elmer) using 360 nm excitation and 450 nm emission fluorescence protocol. The fluorescence intensity difference between the third and the first time points (time lapse of 60 seconds) was used to compute reaction progress.
Also: nearly all actives have a fitted effect of over 40% in size.
Potency is read from the fitted curve at half-maximal effect.

Structure (SMILES)	Potency	max response, negative = inhibition
CCc1cc2c(=O)[nH]c(-c3ccncc3)nc2s1	active: 8.91 µM	–
CCOC(=O)c1sc(NC(=O)COC(=O)CNC(=O)C2CCCCC2)c(C(=O)OCC)c1C	active: 2.24 µM	–
O=c1cc(N2CCOCC2)oc2c(-c3ccccc3)cccc12	–	inactive: -7.16%
CCOC(=O)c1sc(-c2ccc(OC)cc2)cc1NC(C)=O	–	inactive: 41.6%
COc1cc(OC)c2c(C)cc(=O)oc2c1	–	inactive: 68.4%
Cc1cc(=O)oc2cc(OC(=O)c3nn(C(C)C)c(=O)c4ccccc34)ccc12	–	inactive: 36%
Cc1cccc(-n2c(=O)c(C#N)cc3c(=O)n4ccccc4nc32)c1	–	inactive: 41.2%
COc1cc([C@H]2Oc3cc([C@H]4Oc5cc(O)cc(O)c5C(=O)[C@@H]4O)ccc3O[C@@H]2CO)ccc1O	–	inactive: -16.6%
O=C1c2ccccc2C(=O)c2c(O)c(O)cc(O)c21	–	inactive: -24.2%
O=C(O)C1=CC(=C(c2ccc(O)c(C(=O)O)c2)c2ccc(O)c(C(=O)O)c2)C=CC1=O	–	inactive: -23.9%
O=C(Nc1cccc(O)c1)c1noc2c1CCc1ccccc1-2	–	inactive: -27.9%
CCOC(=O)c1sc2c(c1C)C(c1cccs1)C1=C(CCCC1=O)N2 (stereo unspecified)	–	inactive: 32.6%
Cc1ccc(S(=O)(=O)N[C@H](C(=O)Oc2ccc3c(C(F)(F)F)cc(=O)oc3c2)c2ccccc2)cc1	–	inactive: -22.6%
CC[C@@H]1Cc2cc(O)ccc2C2=C1c1ccc(O)cc1C[C@H]2CC	–	inactive: 48.2% and inactive: 6.79%
Cc1ccc2sc(-c3ccc(N)cc3)nc2c1	–	inactive: 35.7%
O=C(COc1ccc2ccccc2c1)Nc1cccc(C(=O)Nc2ccccc2C(=O)O)c1	active: 31.6 µM	–
Cn1c(N)c(C(=O)COC(=O)c2cc(-c3ccco3)nc3ccccc23)c(=O)n(C)c1=O	–	inactive: -11.7%
O=C(c1ccc(COc2ccc(F)cc2)o1)n1cccn1	active: 15.8 µM	–
CCn1c(=N)c(C(=O)NC2CCCCC2)cc2c(=O)n3cccc(C)c3nc21	–	inactive: 91.7%
Cc1cc(-c2ccc(N=Nc3cc(S(=O)(=O)O)c4ccccc4c3N)c(C)c2)ccc1N=Nc1cc(S(=O)(=O)O)c2ccccc2c1N	active: 7.94 µM	–
O=C1NN(c2ccc(Cl)c(Cl)c2)C(=O)/C1=C/c1cccc(OC(=O)c2cccs2)c1	active: 20 µM	–
CC[C@@H](CO)NC(=O)[C@@H]1C=C2c3cccc4c3c(cn4C)C[C@H]2N(C)C1	–	inactive: -25.5%
CCN(CC)C(=O)N[C@H]1C[C@@H]2c3cccc4[nH]cc(c34)C[C@H]2N(C)C1	–	inactive: 0.583%
CC(C)C(=O)Nc1nnc(SCC(=O)N2c3ccccc3CC2C)s1 (stereo unspecified)	active: 10 µM	–
CCn1c(C(=O)Nc2cc(Cl)ccc2C)cc2sc(Cl)cc21	–	inactive: 39.3%
O=C(Cn1c2ccccc2c(=O)c2ccccc21)Nc1cccc(F)c1	active: 0.794 µM	–
